# Measured values published in the supplement of paper PMC3334620.
# Over roughly 33,000 sequences, “E-score (-0.5 to 0.5)” has its median near -0.016; the highest 2% begin near 0.32. This is one part of the list.
# Target: T1, Stp1 (UniProt B3LFK1)
# T1 sequence: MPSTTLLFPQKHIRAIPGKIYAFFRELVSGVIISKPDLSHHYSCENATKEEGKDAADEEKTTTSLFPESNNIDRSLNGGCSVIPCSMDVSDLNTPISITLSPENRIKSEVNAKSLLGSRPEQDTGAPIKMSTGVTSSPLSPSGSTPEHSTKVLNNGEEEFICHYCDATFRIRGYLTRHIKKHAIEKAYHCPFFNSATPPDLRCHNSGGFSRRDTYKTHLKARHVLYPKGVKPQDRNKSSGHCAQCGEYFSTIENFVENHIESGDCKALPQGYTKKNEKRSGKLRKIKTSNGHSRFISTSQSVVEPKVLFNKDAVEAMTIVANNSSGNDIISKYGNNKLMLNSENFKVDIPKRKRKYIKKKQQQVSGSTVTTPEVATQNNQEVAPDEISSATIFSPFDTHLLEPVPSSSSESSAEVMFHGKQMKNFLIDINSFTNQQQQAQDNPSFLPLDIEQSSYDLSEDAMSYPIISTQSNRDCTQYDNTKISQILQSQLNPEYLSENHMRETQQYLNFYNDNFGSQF
# Assay: PBM E-score (8-mer binding enrichment) (E-score (-0.5 to 0.5)); higher = stronger / more preferred TF binding; most listed sequences are background and not binding sites
# Settings: protein concentration: 200 nM; construct: GST-full length
# In short: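 Each ungapped eight-base word and its reverse complement, pooled, received an E-score from the Universal PBM Analysis Suite. Underlying scans, normalised with masliner, recorded fluorescent anti-GST bound to GST-tagged yeast transcription factors. These were applied at about 100-200 nM to universal all-10-mer Agilent arrays double-stranded by primer extension.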
row,Sequence,PBM E-score
1,AAATTCTC,-0.158
2,GCATGGGA,-0.227
3,AAATACCT,0.00333
4,CCTATTGC,0.013
5,AATCAGCG,0.012
6,AACGCCGT,0.482
7,GCTGTATA,0.00031
8,ACACTGGA,-0.0529
9,ACCCTCGG,-0.327
10,CATACTGA,0.169
11,CATTTGTC,-0.0111
12,GTAGAGGA,-0.27
13,GCCAGAGA,-0.14
14,CATGAGGG,-0.212
15,ACTAACTG,-0.00385
16,GACATACA,0.125
17,AACGTCTA,0.0398
18,CCATAACG,0.0339
19,GAGCCTGA,-0.0639
20,GGAAAATA,0.167
21,AAGGAGGA,-0.179
22,GAAGGTTA,0.00224
23,CCCTTGAG,-0.2
24,GCCACTGA,-0.0755
25,ATAACTTC,-0.0104

row,Sequence,PBM E-score
1,CGGAACCC,-0.0613
2,GAGCTTGA,-0.168
3,AGACTAAG,-0.106
4,ATTTCACG,0.0123
5,AGAGAAGG,-0.122
6,ATTGAATC,0.0935
7,GCCTGGAC,-0.223
8,AAGGTTTC,-0.0962
9,ACTTATCC,-0.0589
10,AGTTGAGG,-0.0375
11,ACCTGCTA,-0.158
12,TCGTGGCA,0.102
13,CGACTTCC,-0.248
14,GCGCTTAA,0.0391
15,CGGCAGCA,0.333
16,CGCTAGAA,-0.0475
17,ATGGCGGG,-0.132
18,AAATACTC,0.0143
19,GCGTCTAA,0.0127
20,AGGTCGCG,-0.058
21,ACCTACCA,-0.189
22,CGAGAGGC,0.0572
23,CGCAGCTC,-0.122
24,ATGGGCGA,-0.153
25,ACTATGAA,-0.0377

row,Sequence,PBM E-score
1,AGACAAGG,-0.00804
2,ATGGCAGG,0.012
3,GTCCGCAA,0.0743
4,GGAGTCAC,-0.236
5,GCCTTTCA,0.194
6,GACAGACC,-0.14
7,CAATTCCG,0.107
8,AGATGCAA,-0.0126
9,AACAGCAG,-0.0119
10,AACAGACA,0.0548
11,AATGCAGG,-0.0721
12,ACATAAGA,0.145
13,ATTGTCGA,-0.0508
14,CACATGTC,-0.114
15,ACACCTTA,0.0262
16,ATGCGCTC,-0.0506
17,TGATTCCA,-0.0134
18,ATCACGAC,-0.218
19,AACAATAG,-0.168
20,CTGATCAG,0.0499
21,CGTATCAA,0.226
22,GCACTTGA,0.18
23,AGATTCTC,0.00184
24,TAGCCCGA,-0.00407
25,CCGATGAA,-0.0605

row,Sequence,PBM E-score
1,CTTTTTTC,-0.0574
2,GCCGGCGC,0.346
3,CTGGTTCC,-0.045
4,AGTGTACC,-0.316
5,AGGTTGGC,-0.228
6,GTGGCACA,0.125
7,ACTACGAT,0.0409
8,AGTGCGCA,0.0101
9,CAGGAGCC,-0.0638
10,ATGCGCCG,0.413
11,ACCAGAGT,-0.125
12,GCGCCAAC,0.259
13,ATTAAAAC,0.261
14,CGCGGGAG,-0.121
15,TCTTCTCA,0.0549
16,TACTGCCA,-0.0491
17,CCCGAAGC,-0.239
18,GACCCAGA,-0.0311
19,CACTTATG,0.0482
20,GATCCTGC,-0.0764
21,AGAGTCCT,-0.269
22,CCACATGC,0.132
23,GAGTTCAA,-0.0434
24,ATTACACA,0.215
25,ATTGGTGA,-0.0777

row,Sequence,PBM E-score
1,CGTGGTGC,-0.139
2,GGATGAGA,-0.157
3,AAGATCCC,-0.148
4,AGGCGATC,0.128
5,ACCGCGAT,0.0376
6,GTCATTTA,-0.0447
7,CATGGTGC,0.105
8,AGGAATCG,0.0328
9,CCGAGCGG,0.0338
10,AGCCTCAG,-0.0107
11,CTGAATCC,0.0478
12,GGGCGGCA,0.356
13,CGGTTTGC,-0.106
14,AAAGATTG,-0.142
15,ACTTAGGG,-0.194
16,ATTCTGAA,0.123
17,CGGTTTGA,0.00878
18,ATCACACG,0.291
19,AGGGTTTG,-0.117
20,CACCGCGC,0.166
21,AAGTTTAG,0.0383
22,ACACAGCA,0.0745
23,TAAATAGA,-0.0606
24,AGCGACTG,-0.0206
25,AAGACTGC,-0.127

row,Sequence,PBM E-score
1,GCGGCCGA,0.139
2,CATCGTCC,-0.046
3,CAGGAGCA,-0.125
4,AGGACAGG,-0.181
5,AAAGGTTG,-0.251
6,CCTGACGC,-0.118
7,CAAAAATG,0.167
8,AGAACTTC,-0.0546
9,GCTAGGCC,0.0402
10,AACTATGG,-0.0973
11,AGTATTAT,-0.051
12,GAAGATAC,-0.111
13,TAATGTCA,-0.164
14,CCCACCCA,-0.0405
15,AACTAGGA,-0.0432
16,CTATTTGA,0.177
17,AGATTGTC,0.0173
18,GGAGTCAA,-0.268
19,GGCGAATA,0.0901
20,GCACTAAA,0.204
21,ACTGGACG,-0.112
22,CAGCTGGA,0.148
23,GTTAACGA,-0.125
24,ACCAGAGA,-0.117
25,CTTTACAA,0.0348

row,Sequence,PBM E-score
1,CTTCTTGA,-0.0804
2,CTATCACC,-0.189
3,AGACGCTC,-0.255
4,AGATCCCA,-0.193
5,CCGACCCC,-0.296
6,AAGGCTCC,0.0473
7,AACGAACG,0.11
8,CTTGTCTA,0.0651
9,AAATACGT,0.035
10,CTCTGCGA,-0.0569
11,CTCGTTAC,-0.23
12,TATGTCGA,0.123
13,CAATCCTA,-0.159
14,AGTCGGGG,-0.299
15,AGACCTAG,-0.0729
16,AACTAGTG,-0.0733
17,CGTCCGAG,0.0238
18,ACGCGGGG,0.174
19,CACTGCTA,0.0298
20,CCCCTAGC,-0.385
21,GGCACGCA,0.288
22,ACAGTAAC,0.00178
